Data taken from PubChem BioAssay AID445 (National Center for Advancing Translational Sciences (NCATS), 2006).
Out of some 110,000 compounds screened, about 40 (0.04%) were called active. Inconclusive means that the source gave no clear call. Such entries were picked first, then a sample of the others. The call rests on the fitted dose curve; in most records, active means well fitted curve in the direction sought with a large enough effect in the signal ratio (not every such curve was filed as active); inconclusive means small, poorly fitted or top-dose-only effect, or a change in a side signal; inactive means flat fitted curve, though single readings scatter; the % refers to the signal ratio. Where the call is inconclusive, the potency comes from a doubtful curve fit.

Assay: IkB Signaling;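 on IkBa stabilization activation: 0% = basal untreated cells and 100% = reference inhibitor full response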
Conditions: ABC-DLBCL IkBa-CBG/CBR dual luciferase ratio (green luciferase fused to IkBa over red control in OCI-Ly3 lymphoma cells), 4 h; IkBa stabilization activation: at 57.1 µM (top of the series), scaled: untreated 0%, proteasome inhibitor 100% unless noted
Summary of the method: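 Luminescence ratio of IκBα-fused green versus native red beetle luciferase in OCI-Ly3 cells, 4 h post-doxycycline with compound; red signal alone, scaled from basal (0%) to zero light (-100%), flagged nonspecific or cytotoxic effects.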
Potency means the concentration at half of the fitted maximal effect.

SMILES	IkBa stabilization activation	Potency
NNC(=O)CS(=O)(=O)Nc1ncccn1	inactive: -0.382% [at 11.4 µM, scaled: untreated 0%, proteasome inhibitor 100%]	
Cc1ccc(OCC(=O)Nc2ccc3nc(SCC(=O)N4CCCC4)sc3c2)cc1C	inconclusive: 3.11% [signal inhibitor]	
COc1ccc(NC(=O)CCCS(=O)(=O)c2nc(-c3ccc(OC)c(OC)c3)cc(C(F)(F)F)n2)cc1OC		inconclusive: 6.31 µM [rising, single point]
COc1ccc(Nc2nnc(-c3ccc(C)c(S(=O)(=O)N4CCOCC4)c3)c3ccccc23)cc1	inconclusive: 15.3% [signal inhibitor]	
O=C(NCc1ccc(Cl)cc1)C1CCCN(c2ncnc3onc(-c4ccc(F)cc4)c23)C1 (stereo not drawn)	inactive	
COc1ccccc1N1CCN(C(=O)CSc2nc(-c3ccc(C(C)C)cc3)no2)CC1	inconclusive: 1.36% [signal inhibitor]	
CCCCNC(=O)CSc1nc2n[nH]c(C)c2c(=N)n1-c1ccccc1CC	inconclusive: 6.67% [signal inhibitor]	
O=C(O)[C@@H]1[C@@H]2C[C@H]([C@@H](Br)[C@H]2N2C(=O)CCC2=O)[C@@H]1C(=O)O	inactive: -1.33% [at 11.4 µM, scaled: untreated 0%, proteasome inhibitor 100%]	
COc1ccc(C2CC(=O)c3c([nH]c(C(=O)OCc4ccccc4)c3C)C2)cc1OC (stereo not drawn)	inconclusive: -1.99% [signal inhibitor]	
O=C(NCCCN1CCN(c2ccccc2)CC1)c1cc2c(s1)-c1ccccc1OC2	inconclusive: 6.49% [signal inhibitor]	
Cc1ccccc1Cc1c(C)nc2nc(SCC(=O)NC(C)c3ccccc3)nn2c1C (stereo not drawn)	inconclusive: 5.77% [signal inhibitor]	
CCOC(=O)c1c(C)oc2nc(C)nc(NCCCN3CCN(c4cccc(C)c4)C(C)C3)c12 (stereo not drawn)	inactive	
CCC1CN(C(=O)Nc2cccc3c2CCCC3)c2cc(C)ccc2O1 (stereo not drawn)	inconclusive: 4.71% [signal inhibitor]	
O=C(CN1C(=O)C2(OCCO2)c2ccccc21)c1ccc(F)cc1	inactive	
Cc1ccc(CNC(=O)CN(c2cc(C)cc(C)c2)S(=O)(=O)c2c(C)[nH]c(=O)[nH]c2=O)cc1	inconclusive: -0.00399% [signal inhibitor]	
O=c1oc2ccc(Br)cc2cc1-c1nc2ccccc2o1	inactive	
CCc1cccc(NC(=O)CCS(=O)(=O)c2ccc(C)cc2)c1	inconclusive: 2.58% [signal inhibitor]	
COCCNC(=O)c1cn(C)c(=O)c2cc(OC)c(OC)cc12	inactive	
